# Data from the supplement of paper PMC11417369.
# This is one part of the list.
# System: PF3D7_0420300 AP2 domain 1 (GST-tagged)
# Experiment: gcPBM binding intensity (ln(normalized median fluorescence intensity)); higher = stronger DNA binding
# Procedure, shortened: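 Probes on an Agilent 4 × 180k array were primer-extended, double-stranded and 36 bp long, taken from intergenic genomic regions, with negative controls added. GST-tagged P. falciparum DNA-binding domains from E. coli, about 25 μg on average, were applied to the array for 1 h in 1× PBS containing 1% milk, 0.2 mg/ml BSA, 0.5% salmon testes DNA and 0.03% Triton X-100. Binding intensity, obtained after Alexa488 anti-GST antibody detection and a 488 nm scan, is the highest Masliner-normalised natural-log median intensity across replicate spots of either probe orientation.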
row,Sequence,gcPBM binding intensity (ln)
1,ATATACATTTTAAATTTTAATGTAACCCATGGGAGA [CACACA_negctrl_site588],9.04
2,TGAACCCACAAATCACGTACATATATATACACGTGT [XGTACX_site7739],9.28
3,TTTAACAACTATTTCTGTACACATTTTTATATAATT [XGTACX_site4917],9.47
4,TTAAATATCCATATTTCACACATTTCGATATATATA [CACACA_site4208],9.21
5,ACTGTACTATAAAATACACACATATAAATATAAATA [CACACA_site3009],9.62
6,CCTAAATAAATGGACACACACATATTTATATTTATA [CACACA_site6789],9.67
7,ATAATGTCATAATTATATCCTTTGGCATAAAATAAA [XGTACX_negctrl_site574],8.87
8,TATAATATTATATAATGTACGCATTTATTATTTAAA [XGTACX_site8326],9.03
9,GAATGTAAATATTAAAGTACACAGAATATATCTTCA [XGTACX_site8149],9.25
10,AAATAAAATCATGAATGTACACAAAAATTATTGCAA [XGTACX_site5691],9.35
11,TTTGAAGGAAGGGGGGGAGGGGCCATAACAAAGGAA [GTGCAC_negctrl_site408],10.4
12,ATACCATATAATTATGTGAGAAAATATAATATTCAT [CACACA_negctrl_site310],9.25
13,ATTTTCTTAAATAAATGTACATGGCATTAAAAGTAA [XGTACX_site5119],9.06
14,TATTTGTATATTCATTCCTGTATTCCCTTTTTTGTA [CACACA_negctrl_site1236],9.65
15,AAAAAAAAAAAAAATACACACAAATAATAAAAATAA [CACACA_site1431],9.85
16,TGTACGTTTTTTAACACACACACAAAAAAAAAAAAA [CACACA_site6006],9.5
17,ATATATATATATGTATGTACATAATATTTTTTTTAT [XGTACX_site5551],9.19
18,AGTAAATATATTATATGTACGTATCATAAAATATAT [XGTACX_site1567],9.23
19,TTAATATTAAAATATAAACACACAAAATTCAATTAT [CACACA_site9262],9.47

row,Sequence,gcPBM binding intensity (ln)
1,ATTTTTTTTTTTTTTTTTAATTTATGTTGTTATTTT [CACACA_negctrl_site944],9.6
2,GTAAAATAAATAATATAAATAAAATGAAATGAAACA [TGCATGCA_negctrl_site519],9.61
3,AAGTTTAAAGGAATTACACAAACAAGCAAATATATA [CACACA_negctrl_site857],9.51
4,TAATATATTAAAAGAAGTACATTTCTGATTTAATAG [XGTACX_site6403],9.04
5,ATATATATATATATAGTGCAAATAAAAAATAGACAA [GTGCAC_site9796],9.68
6,GAACCGTTTTTATGTAGTACATATGTATATATATAT [XGTACX_site1577],9.54
7,ATTATATAATAATAAAGTACTAATATTTTTAAAAGA [XGTACX_site235],8.97
8,TATTACAAAAATGTGTTATTATATAAACGTATAGAG [XGTACX_negctrl_site529],9.23
9,AATATAATATAATGCACACATAAAAAAAAAAAAAAA [CACACA_site304],9.34
10,AAATTACAAATAAAATGTACTCATGTTTTTATTATA [XGTACX_site7223],9.02
11,TTTTTAATTTTTTTCACACATATATAAATACAAATA [CACACA_site5530],9.05
12,TTTTTTAAATATATATGTACATATATCTATATATAT [XGTACX_site3461],9.11
13,TTTATAATTTATAGGCGGACAGGAAAATTTTATAAA [XGTACX_site6955],9.26
14,GCAAGGTCCACACTGGTGCATTAAAAATAAAATATA [GTGCAC_site9956],8.96
15,TGAACAGGTCATAATTTACACACTATATATTTTATT [CACACA_site8123],9.57
16,TTTTTCTTTTTTTGTTGTACATTTTGTAATATTTAC [XGTACX_site4102],9.47
17,TACAGGAATATTTTTACACACTAAAAGTTATAAACT [CACACA_site6876],9.3
18,AAGAAAAATTCTTCACGTACAAATAATTATATATAT [XGTACX_site7217],9.17
19,TATAATATATATGTATGTACGTATGTATGATTTTGT [XGTACX_site1164],9.34

row,Sequence,gcPBM binding intensity (ln)
1,TTATTTATATATTGCCCACACACATGTGATTATTTA [CACACA_site1715],9.75
2,AATATTTTTTGTTTTACACACATATATAAATATATA [CACACA_site3602],9.64
3,GAATTATATACTTATTGTACAAAAAAAAAAAAAAAA [XGTACX_site3193],8.68
4,ATAAACATGTATATATTAAAAAAAAAAAAAAAAAAT [CACACA_negctrl_site92],9.33
5,ACGATGTTCATCACTACACACACAAAGAAATATATA [CACACA_site8859],9.81
6,AACCAAAATTTTTGTCGTACAAAAGAGCAAATGTAG [XGTACX_site6472],9.38
7,TTTTACTATGATATTTATATATCTATATATGTATAT [XGTACX_negctrl_site499],9.23
8,AAAAATAAAAATGAGTGTACTTTAAGCCCTACACTT [XGTACX_site828],9.19
9,TATAATATTATAGTTTGTACGAAAATAATATATTTA [XGTACX_site8673],8.91
10,AATGTAAAACGAAATGCACACTATGGAAAATATAAA [CACACA_site4559],9.65
11,TAATAATAATTAAAATGAGATAAATAAATATATATA [TGCATGCA_negctrl_site322],9.17
12,TTATATATTTATAAATGTACGTATAAGAATTTAATT [XGTACX_site8541],9.19
13,CTATTAATGTACTCTACACACATATAAGAGGACATT [CACACA_site471],9.46
14,TAAGTTTGTGCAAGTGGTACATATATATAAATTTAT [XGTACX_site5944],9.29
15,TGATTATAGACACGCGCACACACAACAAAAAAAAAA [CACACA_site9179],9.75
16,TTAGCAACTATTACTACACACATTTGTATTTAATTT [CACACA_site4961],9.63
17,TTTACATAAACTGGTAGTACATAATATGGCTTAAAA [XGTACX_site5002],9.23
18,TGGATTTTTTGATTTTTGTTTTTCTTCTTTCCCCCC [CACACA_negctrl_site1471],9.39
